Measured values published in publication PMC12820563.
Some of the results follow. The list includes weakly bound sequences.

The sequences below were run against T1, MBP-FoxP3dN (UniProt Q99JB6) (assay: PD-seq (MBP pull-down with sequencing)). Settings: 20 mM Tris-HCl pH 7.5, 100 mM NaCl, 1.5 mM MgCl2, 0.4 uM protein, 0.1 uM dsDNA library, 30 min, room temperature, amylose pull-down; high values mean tight binding; double strand, one strand shown.
T1 sequence: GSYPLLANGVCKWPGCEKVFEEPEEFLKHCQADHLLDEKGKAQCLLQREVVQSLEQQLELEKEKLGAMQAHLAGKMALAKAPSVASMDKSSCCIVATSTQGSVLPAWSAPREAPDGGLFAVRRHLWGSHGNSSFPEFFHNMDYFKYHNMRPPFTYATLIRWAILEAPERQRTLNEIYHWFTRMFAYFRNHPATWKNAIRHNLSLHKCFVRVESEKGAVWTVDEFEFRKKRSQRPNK
Work on “GATGATTGTTCTCCCAGCTGATGAATTATCTGACTCGAGTAAACAAATTTTCCTAATCTTTCTGTTCAAGCGCCATCTAC” yielded a binding signal (RPM ratio (pull-down/input)) of 0.23. “GATGATTGTTCTCCCAGCTGATGAATTAAAGTCATCGAGTAAACAAATTTTCCTAATCTTTCTGTTCAAGCGCCATCTAC” showed a binding signal (RPM ratio (pull-down/input)) of 0.486. “GATGATTGTTCTCCCAGCTGATGAATTGTATGTCTCGAGTAAACAAATTTTCCTAATCTTTCTGTTCAAGCGCCATCTAC” showed a binding signal (RPM ratio (pull-down/input)) of 2.89. Sequence “GATGATTGTTCTCCCAGCTGATGAATTGGTCCGATCGAGTAAACAAATTTTCCTAATCTTTCTGTTCAAGCGCCATCTAC” has a binding signal (RPM ratio (pull-down/input)) of 0.231. Work on “GATGATTGTTCTCCCAGCTGATGAATTGCGTACGTCGAGTAAACAAATTTTCCTAATCTTTCTGTTCAAGCGCCATCTAC” yielded a binding signal (RPM ratio (pull-down/input)) of 1.07. “GATGATTGTTCTCCCAGCTGATGAATTAGCAGTATCGAGTAAACAAATTTTCCTAATCTTTCTGTTCAAGCGCCATCTAC” showed a binding signal (RPM ratio (pull-down/input)) of 0.734. In the case of “GATGATTGTTCTCCCAGCTGATGAATTCATACGATCGAGTAAACAAATTTTCCTAATCTTTCTGTTCAAGCGCCATCTAC”, the binding signal (RPM ratio (pull-down/input)) is reported as 0.338. “GATGATTGTTCTCCCAGCTGATGAATTGAAGCTATCGAGTAAACAAATTTTCCTAATCTTTCTGTTCAAGCGCCATCTAC” was tested, and the binding signal (RPM ratio (pull-down/input)) was 0.54. Work on “GATGATTGTTCTCCCAGCTGATGAATTGTCCAGATCGAGTAAACAAATTTTCCTAATCTTTCTGTTCAAGCGCCATCTAC” yielded a binding signal (RPM ratio (pull-down/input)) of 0.184. Work on “GATGATTGTTCTCCCAGCTGATGAATTAAGCGAATCGAGTAAACAAATTTTCCTAATCTTTCTGTTCAAGCGCCATCTAC” yielded a binding signal (RPM ratio (pull-down/input)) of 0.343. With “GATGATTGTTCTCCCAGCTGATGAATTGGAGGGCTCGAGTAAACAAATTTTCCTAATCTTTCTGTTCAAGCGCCATCTAC” the binding signal (RPM ratio (pull-down/input)) was 0.267. With “GATGATTGTTCTCCCAGCTGATGAATTTTTATTTTCGAGTAAACAAATTTTCCTAATCTTTCTGTTCAAGCGCCATCTAC” the binding signal (RPM ratio (pull-down/input)) was 0.838. “GATGATTGTTCTCCCAGCTGATGAATTCTTGACATCGAGTAAACAAATTTTCCTAATCTTTCTGTTCAAGCGCCATCTAC” gave a binding signal (RPM ratio (pull-down/input)) of 0.383. In the case of “GATGATTGTTCTCCCAGCTGATGAATTTGGAGGCTCGAGTAAACAAATTTTCCTAATCTTTCTGTTCAAGCGCCATCTAC”, the binding signal (RPM ratio (pull-down/input)) is reported as 0.462. “GATGATTGTTCTCCCAGCTGATGAATTAGAGATGTCGAGTAAACAAATTTTCCTAATCTTTCTGTTCAAGCGCCATCTAC” gave a binding signal (RPM ratio (pull-down/input)) of 0.424. “GATGATTGTTCTCCCAGCTGATGAATTCTGGAACTCGAGTAAACAAATTTTCCTAATCTTTCTGTTCAAGCGCCATCTAC” gave a binding signal (RPM ratio (pull-down/input)) of 0.199. “GATGATTGTTCTCCCAGCTGATGAATTCTTTATCTCGAGTAAACAAATTTTCCTAATCTTTCTGTTCAAGCGCCATCTAC” gave a binding signal (RPM ratio (pull-down/input)) of 0.322. Sequence “GATGATTGTTCTCCCAGCTGATGAATTCCATTATTCGAGTAAACAAATTTTCCTAATCTTTCTGTTCAAGCGCCATCTAC” has a binding signal (RPM ratio (pull-down/input)) of 0.887. “GATGATTGTTCTCCCAGCTGATGAATTCTGGCATTCGAGTAAACAAATTTTCCTAATCTTTCTGTTCAAGCGCCATCTAC” gave a binding signal (RPM ratio (pull-down/input)) of 4.83. For “GATGATTGTTCTCCCAGCTGATGAATTGTCAGTGTCGAGTAAACAAATTTTCCTAATCTTTCTGTTCAAGCGCCATCTAC”, the binding signal (RPM ratio (pull-down/input)) was 0.504. With “GATGATTGTTCTCCCAGCTGATGAATTGAAACATTCGAGTAAACAAATTTTCCTAATCTTTCTGTTCAAGCGCCATCTAC” the binding signal (RPM ratio (pull-down/input)) was 0.815. “GATGATTGTTCTCCCAGCTGATGAATTGGGCGGATCGAGTAAACAAATTTTCCTAATCTTTCTGTTCAAGCGCCATCTAC” was tested, and the binding signal (RPM ratio (pull-down/input)) was 0.365. For “GATGATTGTTCTCCCAGCTGATGAATTTGTCCCTTCGAGTAAACAAATTTTCCTAATCTTTCTGTTCAAGCGCCATCTAC”, the binding signal (RPM ratio (pull-down/input)) was 3.57. In the case of “GATGATTGTTCTCCCAGCTGATGAATTCTTTGGCTCGAGTAAACAAATTTTCCTAATCTTTCTGTTCAAGCGCCATCTAC”, the binding signal (RPM ratio (pull-down/input)) is reported as 0.217. “GATGATTGTTCTCCCAGCTGATGAATTCTTGATCTCGAGTAAACAAATTTTCCTAATCTTTCTGTTCAAGCGCCATCTAC” gave a binding signal (RPM ratio (pull-down/input)) of 0.282. “GATGATTGTTCTCCCAGCTGATGAATTGAGTTTCTCGAGTAAACAAATTTTCCTAATCTTTCTGTTCAAGCGCCATCTAC” gave a binding signal (RPM ratio (pull-down/input)) of 1.19. With “GATGATTGTTCTCCCAGCTGATGAATTCCGAGGCTCGAGTAAACAAATTTTCCTAATCTTTCTGTTCAAGCGCCATCTAC” the binding signal (RPM ratio (pull-down/input)) was 0.327. “GATGATTGTTCTCCCAGCTGATGAATTCATAGTTTCGAGTAAACAAATTTTCCTAATCTTTCTGTTCAAGCGCCATCTAC” showed a binding signal (RPM ratio (pull-down/input)) of 0.677. Work on “GATGATTGTTCTCCCAGCTGATGAATTGTCGCACTCGAGTAAACAAATTTTCCTAATCTTTCTGTTCAAGCGCCATCTAC” yielded a binding signal (RPM ratio (pull-down/input)) of 0.879. In the case of “GATGATTGTTCTCCCAGCTGATGAATTAACGGTTTCGAGTAAACAAATTTTCCTAATCTTTCTGTTCAAGCGCCATCTAC”, the binding signal (RPM ratio (pull-down/input)) is reported as 0.457. Work on “GATGATTGTTCTCCCAGCTGATGAATTGTTGTCGTCGAGTAAACAAATTTTCCTAATCTTTCTGTTCAAGCGCCATCTAC” yielded a binding signal (RPM ratio (pull-down/input)) of 5.49. “GATGATTGTTCTCCCAGCTGATGAATTTGGGTCGTCGAGTAAACAAATTTTCCTAATCTTTCTGTTCAAGCGCCATCTAC” gave a binding signal (RPM ratio (pull-down/input)) of 0.772. “GATGATTGTTCTCCCAGCTGATGAATTAACCCTGTCGAGTAAACAAATTTTCCTAATCTTTCTGTTCAAGCGCCATCTAC” showed a binding signal (RPM ratio (pull-down/input)) of 0.233. Work on “GATGATTGTTCTCCCAGCTGATGAATTTCTAAGTTCGAGTAAACAAATTTTCCTAATCTTTCTGTTCAAGCGCCATCTAC” yielded a binding signal (RPM ratio (pull-down/input)) of 0.256. “GATGATTGTTCTCCCAGCTGATGAATTTTAGCTGTCGAGTAAACAAATTTTCCTAATCTTTCTGTTCAAGCGCCATCTAC” was tested, and the binding signal (RPM ratio (pull-down/input)) was 0.405. “GATGATTGTTCTCCCAGCTGATGAATTTCGTCCTTCGAGTAAACAAATTTTCCTAATCTTTCTGTTCAAGCGCCATCTAC” showed a binding signal (RPM ratio (pull-down/input)) of 0.514. In the case of “GATGATTGTTCTCCCAGCTGATGAATTCTCGGTATCGAGTAAACAAATTTTCCTAATCTTTCTGTTCAAGCGCCATCTAC”, the binding signal (RPM ratio (pull-down/input)) is reported as 0.385. In the case of “GATGATTGTTCTCCCAGCTGATGAATTGTGGGTATCGAGTAAACAAATTTTCCTAATCTTTCTGTTCAAGCGCCATCTAC”, the binding signal (RPM ratio (pull-down/input)) is reported as 1.18. Work on “GATGATTGTTCTCCCAGCTGATGAATTCGGCGGGTCGAGTAAACAAATTTTCCTAATCTTTCTGTTCAAGCGCCATCTAC” yielded a binding signal (RPM ratio (pull-down/input)) of 0.523. For “GATGATTGTTCTCCCAGCTGATGAATTACCATGTTCGAGTAAACAAATTTTCCTAATCTTTCTGTTCAAGCGCCATCTAC”, the binding signal (RPM ratio (pull-down/input)) was 0.514.
